Reference: PubChem BioAssay AID268 (DTP/NCI, 2004)
Not every entry of the source has a single result; some have several. This list holds those alone. There may be further records. The values listed for one entry differ, and nothing given here explains why; some may be repeats, others may stem from another dose, organism or construct than stated. Signs of the kind (2×) count equal records among those shown.

Test system: CD2F1 mice, P1798 lymphosarcoma sc, tumor weight T/C
Assay: NCI In Vivo Anticancer Drug Screen. Data for tumor model P1798 Lymphosarcoma (subcutaneous) in CD2F1 (CDF1) mice
Conditions: endpoint: mean tumor weight, higher = larger tumour
Method: The antitumor activity of compounds was measured in mice bearing transplantable tumors. Survival or tumor size were measured and the results are expressed as the measurement made in the treated group (T) divided by the measurement made in the vehicle treated control group (C). The tumor model used in this assay is P1798 Lymphosarcoma (subcutaneous) in CD2F1 (CDF1) mice

[1] = dose: 12.5 mg/kg/injection, schedule: Q01DX010 (sc), vehicle: steriod suspending solution
[2] = dose: 6.25 mg/kg/injection, schedule: Q01DX010 (sc), vehicle: steriod suspending solution
[3] = dose: 50.0 mg/kg/injection, schedule: Q01DX010 (sc), vehicle: steriod suspending solution
[4] = dose: 25.0 mg/kg/injection, schedule: Q01DX010 (sc), vehicle: steriod suspending solution
[5] = dose: 100.0 mg/kg/injection, schedule: Q01DX010 (sc), vehicle: steriod suspending solution

SMILES	T/C [3]	T/C [4]	T/C [5]	other results
CC(=O)OCC(=O)[C@@]1(O)CC[C@H]2[C@@H]3CCC4=CC(=O)[C@H](C)C[C@]4(C)[C@@]3(F)[C@@H](O)C[C@@]21C				T/C [1]: 2 % of control (2×) and 65 % of control
C[C@@H]1C[C@H]2[C@@H]3CCC4=CC(=O)C=C[C@]4(C)[C@@]3(F)[C@@H](O)C[C@]2(C)[C@@]1(O)C(=O)CO				T/C [2]: 2 % of control and 114 % of control
CC(=O)[C@H]1CC[C@H]2[C@@H]3C[C@H](C)C4=CC(=O)CC[C@]4(C)[C@H]3C(=O)C[C@]12C	61 % of control, 79 % of control, 102 % of control			
C#C[C@]1(O)CC[C@H]2[C@@H]3CCc4cc(O)ccc4[C@H]3CC[C@@]21C	63 % of control and 92 % of control			T/C [2]: 50 % of control and 85 % of control; T/C [1]: 56 % of control and 98 % of control
C[C@]12CC[C@@H]3c4ccc(O)cc4CC[C@H]3[C@@H]1CC(=O)[C@@H]2O				T/C [2]: 79 % of control and 118 % of control
CC(=O)[C@@]1(O)CC[C@H]2[C@@H]3C[C@H](C)C4=CC(=O)C=C[C@]4(C)[C@@]3(F)[C@@H](O)C[C@@]21C	2 % of control, 4 % of control, 36 % of control	15 % of control, 17 % of control, 51 % of control	3 % of control, 6 % of control, 35 % of control	
C[C@]12C[C@H](O)[C@H]3[C@@H](CCC4=CC(=O)CC[C@@]43C)[C@@H]1CC[C@@H]2C(=O)CO	38 % of control, 57 % of control, 97 % of control		5 % of control, 7 % of control, 91 % of control	
CC(=O)O[C@H]1CC[C@H]2[C@@H]3CC[C@H]4CCCC[C@]4(C)[C@H]3CC[C@]12C			98 % of control and 158 % of control	
C[C@]12C=CC(=O)C=C1CC[C@@H]1[C@@H]2[C@@H](O)C[C@@]2(C)[C@H]1CC[C@]2(O)C(=O)CO	2 % of control (2×) and 121 % of control	7 % of control, 9 % of control, 112 % of control	2 % of control, 4 % of control, 107 % of control	
COc1cc2c3c(c4ccc(OC)c(OC)c4c2cc1OC)CN1CCC[C@@H]1C3				T/C (dose: 2.5 mg/kg/injection, schedule: Q01DX010 (ip), vehicle: saline): 61 % of control and 100 % of control
CC(=O)OCC(=O)[C@@]1(O)CC[C@H]2[C@@H]3CCC4=CC(=O)[C@H](C)C[C@]4(C)[C@H]3[C@@H](O)C[C@@]21C	3 % of control (2×) and 98 % of control	4 % of control, 14 % of control, 110 % of control	2 % of control (2×) and 30 % of control	
C[C@]12CC[C@@H]3c4ccc(O)cc4CC[C@H]3[C@@H]1C[C@@H](O)[C@@H]2O	52 % of control and 97 % of control			T/C [1]: 66 % of control and 94 % of control
CC(=O)O[C@]1(C(C)=O)CC[C@H]2[C@@H]3C[C@H](C)C4=CC(=O)C=C[C@]4(C)[C@@]3(F)[C@@H](O)C[C@@]21C	6 % of control (2×) and 34 % of control		3 % of control, 4 % of control, 32 % of control	
C=C1C[C@H]2[C@@H]3C=C(C)C4=CC(=O)CC[C@]4(C)[C@H]3CC[C@]2(C)[C@@]1(OC(C)=O)C(C)=O			106 % of control and 156 % of control	
O=CN(O)CC(=O)O				T/C (dose: 125.0 mg/kg/injection, schedule: Q01DX010 (ip), vehicle: saline): 59 % of control and 100 % of control; T/C (dose: 500.0 mg/kg/injection, schedule: Q01DX010 (ip), vehicle: saline): 54 % of control and 110 % of control
C[C@]12CC[C@@H]3c4ccc(O)cc4CC[C@H]3[C@@H]1C[C@H](O)C2		82 % of control and 114 % of control		
C[C@]12CCC(=O)C=C1CC[C@@H]1[C@@H]2[C@@H](O)C[C@@]2(C)[C@H]1CC[C@]2(O)C(=O)CO	2 % of control, 3 % of control, 92 % of control	6 % of control, 7 % of control, 112 % of control		T/C [1]: 58 % of control, 82 % of control, 102 % of control
C=CCOc1ccc2c(c1)CC[C@@H]1[C@@H]2CC[C@]2(C)[C@@H](O)[C@H](O)C[C@@H]12	44 % of control and 82 % of control	64 % of control and 96 % of control		T/C [2]: 67 % of control and 112 % of control; T/C [1]: 57 % of control and 96 % of control
CC1C[C@@H]2[C@H]([C@@H](O)C[C@@]3(C)[C@H]2CC[C@]3(O)C(=O)CF)[C@@]2(C)CCC(=O)C=C12 (some centres undefined)			17 % of control, 23 % of control, 106 % of control	
CC(=O)[C@@]12OC(C)(C)O[C@@H]1C[C@H]1[C@@H]3C[C@H](C)C4=CC(=O)CC[C@]4(C)[C@H]3CC[C@@]12C	11 % of control and 119 % of control	50 % of control and 107 % of control	4 % of control and 114 % of control	
C=CCOc1ccc2c(c1)CC[C@@H]1[C@@H]2CC[C@]2(C)[C@@H](O)[C@@H](O)C[C@@H]12	62 % of control and 95 % of control	52 % of control and 86 % of control		
C[C@]12C=CC(=O)C=C1CC[C@@H]1[C@@H]2CC[C@]2(C)OC(=O)CC[C@@H]12	79 % of control and 118 % of control			
C=CCOc1ccc2c(c1)CC[C@@H]1[C@@H]2CC[C@@]2(C)[C@H]1CC[C@]2(C)O	38 % of control and 76 % of control	52 % of control and 96 % of control		T/C [2]: 59 % of control and 89 % of control; T/C [1]: 71 % of control and 101 % of control
C[C@]12C=CC(=O)C=C1CC[C@H]1[C@@H]3C[C@@H](O)[C@](O)(C(=O)CO)[C@@]3(C)C[C@H](O)[C@@]12F	2 % of control and 29 % of control	2 % of control, 5 % of control, 30 % of control		T/C [1]: 2 % of control, 3 % of control, 103 % of control
